Experimental data published in PubChem BioAssay AID686978 (National Center for Advancing Translational Sciences (NCATS), 2013).
“And” between values parts separate entries of the source, which are not always exact repeats. Equal entries are not always repeated. Out of some 420,000 compounds screened, about 64,000 (15%) were called active. The shares of active, inactive and inconclusive entries below differ from those in the screen. Calls come from the whole dose curve; as a rule, active = well fitted inhibition curve with a large enough effect; inconclusive = small, poorly fitted or top-dose-only effect; inactive = flat fitted curve, though single readings scatter. Potencies of inconclusive entries are doubtful fits and often do not repeat.

Assay: qHTS for Inhibitors of human tyrosyl-DNA phosphodiesterase 1 (TDP1): qHTS in cells in absence of CPT; note: nearly all actives have a fitted effect of over 55% in size
Conditions: DT40 Tdp1-/- hTDP1 cells, no CPT, ATP luminescence, 48 h; activity change, negative = growth inhibition: at 46.2 µM (top of the series) unless noted
How it was run: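 Chicken DT40 Tdp1-/- cells complemented with human TDP1, screened without camptothecin (DMSO vehicle only), 400 cells/well. Compounds pin-transferred, cells incubated at 37 °C for at least 48 hr. Growth read as ATP-dependent luminescence (CellTiter-Glo, 30 min at RT).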
% is set by controls: 0 for no effect and ±100 for the full control effect; potency is the fitted concentration of half-maximal effect; tags give direction and shape of the fitted curve.

SMILES | Potency | activity change, negative = growth inhibition
Cc1sc(NC(=O)c2ccccc2)c(C(c2ccc(Cl)cc2)N2CCN(CCO)CC2)c1C (centres undefined) | active: 25.9 µM | 
COc1ccc(-c2cncnc2-c2ccc(OC)cc2O)cc1 | inconclusive: 8.2 µM [inhibitor, partial curve] | 
C=Cc1ccc(CC2(C)C(=O)Nc3ccc(-c4cccnc4)cc32)cc1 (centres undefined) | active: 4.61 µM | 
O=C(COc1ccccc1)NCC(c1ccc(Cl)cc1)N1CCCCC1 (centres undefined) | inconclusive: 23.1 µM [inhibitor, single point] | 
CC(C)N(C(=O)[C@H]1C[C@H](CC(=O)NCc2cccc(C(F)(F)F)c2)C(=O)N2CCc3c([nH]c4cc(CCC(=O)N(C)C)ccc34)[C@]12C)C(C)C | inconclusive: 29.1 µM [inhibitor, single point] | 
Cc1ccc(NC(=O)C2CCCN(C(=O)c3ccc(Cl)cc3)C2)cc1C (centres undefined) | active: 2.91 µM | 
O=C(N/N=C/c1ccco1)c1cc([N+](=O)[O-])cc([N+](=O)[O-])c1 | inconclusive: 25.9 µM [inhibitor, partial curve, poor fit] | 
COc1cc(/C=C/c2cncc(/C=C/c3cc(OC)c(OC)c(OC)c3)c2)cc(OC)c1OC | inactive | 
COc1cc(/C=C/C(=O)OCC(=O)NC(=O)NC2CCCCC2C)ccc1OC(F)F (centres undefined) | inactive | 
CCCc1ccc2oc(C(=O)NCCCN3CCOCC3)c(C)c2c1 | inconclusive: 29.1 µM [inhibitor, single point] | 
C=C(C)COc1ccc(-c2nc(N)ncc2Oc2ccccc2OC)c(O)c1 | inconclusive: 20.6 µM [inhibitor, partial curve, poor fit] | 
Fc1ccc(C(c2nnnn2C2CCCC2)N2CCc3ccccc32)cc1 (centres undefined) | active: 23.1 µM | 
CCc1ccc(NC(=O)CSc2nc3c(c(=O)[nH]2)CN(Cc2ccc4c(c2)OCO4)CC3)cc1 | inconclusive: 29.1 µM [inhibitor, single point] | 
Cc1cc(-c2csc3ncnc(N4CCN(C)CC4)c23)cc(C)c1C | inconclusive: 16.4 µM [inhibitor, partial curve] | 
O=C(O)c1nn(CC(=O)N2CCCCCC2)c(=O)c2ccccc12 | inactive | 
CCn1c(C(=O)O)c(CC(=O)Nc2cccc(C(F)(F)F)c2)c2ccccc21 | inactive | 
Cc1nc2ccc(-c3nc4cc(N)ccc4o3)cc2[nH]1 | inconclusive: 29.1 µM [inhibitor, single point] | 
CCOc1ccccc1NC(=O)CN(c1ccc(OC)c(OC)c1)S(=O)(=O)c1ccc(C)cc1 | inconclusive: 20.6 µM [inhibitor, single point] | 
CC(=O)CC1c2cc(F)ccc2C=C(c2ccsc2)N1c1ccc(-c2ccc(C(N)=O)cc2)cc1 (centres undefined) | inconclusive: 29.1 µM [inhibitor, single point] | 
Cc1csc(SCC(=O)Nc2cccc(S(=O)(=O)N3CCCC3)c2)n1 |  | inconclusive: -31.5% [inhibitor]
CCC1CN(Cc2cn[nH]c2-c2ccc(OC)cc2)Cc2cc(OC)ccc2O1 (centres undefined) | inconclusive: 16.4 µM [inhibitor, partial curve, poor fit] | 
N#Cc1ccc(S(=O)(=O)N2CCCCC2c2cc(C(=O)NCc3cccnc3)no2)cc1 (centres undefined) | inconclusive: 25.9 µM [inhibitor, single point] | 
Cc1cccc(OCCc2c(C)[nH]c(=S)[nH]c2=O)c1 | active: 16.4 µM | 

SMILES | Potency | activity change, negative = growth inhibition
O=C(NCc1ccccn1)C(C(=O)c1cccc([N+](=O)[O-])c1)n1cc(Cl)ccc1=O (centres undefined) | inactive | 
CCNC(=O)C1(C)CCN(C(=O)c2ccccc2OC(F)(F)F)C1 (centres undefined) | inactive | 
Cc1ccc(-c2nnn(CC(=O)NCC3COCCO3)n2)o1 (centres undefined) | inconclusive: 16.4 µM [inhibitor, single point] | 
Cc1csc2nc(COC(=O)c3ccc(Cl)c([N+](=O)[O-])c3)cc(=O)n12 | inconclusive: 29.1 µM [inhibitor, single point] | 
c1ccc(-c2cccc(N3CCC4(CCNCC4)CC3)c2)cc1 | active: 8.2 µM | 
O=C(CCNS(=O)(=O)c1cccs1)NCc1ccco1 | inactive | 
CCc1cccc2c(C(O)(c3c[nH]c4c(CC)cccc34)c3c[nH]c4c(CC)cccc34)c[nH]c12 | inconclusive: 35.5 µM [inhibitor, single point] | 
CCOC(=O)/C=c1\s/c(=C(\C#N)C(=O)NC)n(-c2ccccc2)c1=O | inconclusive: 16.4 µM [inhibitor, single point] | 
CC(=O)Nc1ccc(-c2csc(NC(C)c3ccccc3)n2)cc1 (centres undefined) | inactive | 
COc1ccc(CNCc2cccc(Cl)c2)cc1 | inactive | 
O=C(Nc1ccccc1Cl)c1cc(C2CCCCN2C(=O)c2cccs2)on1 (centres undefined) | inconclusive: 18.4 µM [inhibitor, single point] | 
CN(C)S(=O)(=O)c1ccc(NC(=O)C2CCCN(C(=O)c3ccc(Cl)cc3)C2)cc1 (centres undefined) | inconclusive: 23.1 µM [inhibitor, partial curve, poor fit] | 
NS(=O)(=O)c1ccc(O)c(NC(=O)c2ccc([N+](=O)[O-])o2)c1 | inconclusive: 16.4 µM [inhibitor, single point] | 
COC(=O)C1=C(C)N(C(C)C)C(=O)C1(NC(=O)c1ccccc1OC)C(F)(F)F (centres undefined) | inactive | 
Cc1ccc(C(=O)c2oc3ccccc3c2NC(=O)c2cc(-c3cc(C)ccc3O)n[nH]2)cc1 | active: 13 µM | 
Cn1cc(CNC(=O)C2c3ccccc3Oc3ccccc32)cn1 | inactive | 
CN1CCCN(C(=O)[C@@H]2C[C@@H](Sc3nc4ccccc4[nH]3)CN2Cc2ccc(-c3ccccc3)cc2)CC1 | inconclusive: 18.4 µM [inhibitor, single point] | 
COc1ccccc1CNC(=O)C(=O)NCC(c1ccco1)S(=O)(=O)c1ccc(C)cc1 (centres undefined) | inconclusive: 23.1 µM [inhibitor, single point] | 
Cc1ccc(S(=O)(=O)N2C[C@H]3[C@H]4C(=O)N(C5CCCCC5)C(=O)[C@H]4CC(=O)[C@H]3[C@@H]2c2ccccc2F)cc1 | inconclusive: 23.1 µM [inhibitor, single point] | 
CCCCc1ccc(NC(=O)C(C)CC)cc1 (centres undefined) | inactive | 
CC(=O)Nc1cccc(-c2nc3ccccc3s2)c1C | inactive | 
Cc1ccc(C(=O)NC(C)CCc2ccccc2)cc1[N+](=O)[O-] (centres undefined) | inconclusive: 14.6 µM [inhibitor, partial curve] | 
COc1cccc(C(=O)Nc2nc3ccccc3s2)c1 | inactive | 

SMILES | Potency | activity change, negative = growth inhibition
Cc1cccc(C(=O)NC(=S)NC(C)c2ccccc2)c1 (centres undefined) | inconclusive: 20.6 µM [inhibitor, partial curve] | 
C/C(CC(=O)Nc1ccccc1-c1ccccc1)=N\NC(=O)COc1ccc(C)cc1Br | inconclusive: 18.4 µM [inhibitor, partial curve] | 
CC1(C)OC(=O)N(CC(=O)Nc2ccccc2)C1(C)O (centres undefined) | inconclusive: 29.1 µM [inhibitor, single point] | 
CC1CCC/C(=N\NC(=S)Nc2ccccc2)C1 (centres undefined) | active: 10.3 µM | 
COc1ccc(N2CCN(C(=O)c3cc4c(=O)n(Cc5ccco5)ccc4nc3C)CC2)cc1 | inconclusive: 29.1 µM [inhibitor, single point] | 
COc1ccc(NC(=O)N2CCc3cc(OC)c(OC)cc3C2)cc1 | inconclusive: 25.9 µM [inhibitor, single point] | 
CN(C)c1ccc(NC(=O)Oc2ccccc2)cc1 | inactive | 
CCC(=O)N1CCc2cc(Br)cc(S(=O)(=O)Nc3ccccc3C(=O)OC)c21 | inconclusive: 29.1 µM [inhibitor, single point] | 
O=C(CSc1nccn1Cc1ccc(Cl)cc1)Nc1nc2ccccc2s1 | inconclusive: 23.1 µM [inhibitor, single point] | 
COCCCNC(=O)c1cc2c(-c3cccc(OC)c3)nn(C)c2s1 | inconclusive: 29.1 µM [inhibitor, single point] and inconclusive: 18.4 µM [inhibitor, single point] | 
CCOc1ccccc1N1CC(C(=O)N2CCN(Cc3ccc(C#N)cc3)CC2)CC1=O (centres undefined) | inactive | 
CCCCC[C@H]1CN(Cc2ccccc2)C(=O)[C@@H]1CC(=O)NCc1ccc(OC)cc1 | active: 11.2 µM and active: 16.4 µM | 
O=C(CCc1nc(-c2ccccc2F)no1)NCCN1CCOCC1 | inactive | 
CCOc1cc(-c2nc(-c3ccc(-c4ccccc4)nc3OCC)no2)cc(OCC)c1OCC | inconclusive: 23.1 µM [inhibitor, partial curve] | 
COc1ccc(C(=O)Nc2c(C(C)(C)C)nn(C)c2C(C)(C)C)cc1 | inactive | 
O=C(Nc1ccccc1)n1cc(-c2ccccn2)c(N2CCOCC2)n1 | inconclusive: 16.4 µM [inhibitor, single point] | 
O=C(NCc1ccccc1Cl)c1ccccc1NC(=O)c1nsc2ccccc12 | active: 16.4 µM | 
Cc1ccc2oc3c(c(=O)c2c1)C(c1cccs1)N(CCCN(C)C)C3=O (centres undefined) | inconclusive: 20.6 µM [inhibitor, single point] | 
Cc1cccnc1-c1cccc2c1OC(CNC(=O)Cc1c(C)noc1C)C2 (centres undefined) | inactive | 
CCCCOc1c(Cl)cc(C(=O)N(C)CC(=O)Nc2ccc(N3CCOCC3)cc2)cc1OCC | inconclusive: 20.6 µM [inhibitor, single point] | 
CCOc1cccc(CN2CCCC(N3CCc4ccccc4C3)C2)c1O (centres undefined) | inconclusive: 11.6 µM [inhibitor, single point] | 
COc1ccc(/C=C2\SC(=S)N(CCCC(=O)Nc3ccc(C(=O)O)cc3)C2=O)cc1OC | inactive | 
CCc1ccc(NC(=O)c2cc(S(=O)(=O)N3CCCC(C)C3)cn2C)cc1 (centres undefined) | inactive | 
